Hit rate of the full screen: of about 48,000 compounds, about 120 (0.25%) were called active. Inconclusive results (about 4%) are left out. The call rests on the fitted dose curve; in most records, active means well fitted activation curve with a large enough effect; inconclusive means small, poorly fitted or top-dose-only effect, or another doubt; inactive means no such curve, though single readings can be large or run the other way. Some of the results follow.
Assay: Primary qHTS for Identification of Small Molecule Activators of Huntingtin-Antisense Promoter Activity; further: nearly all actives have a fitted effect of over 55% in size
Settings: HEK293 HTT-AS promoter firefly luciferase reporter, 24 h; series mostly up to 57.5 µM; activity change, positive = activation: at the top concentration
Summary of the method: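 Quantitative HTS used concentration series of up to 57.5 uM final on HEK293 luciferase reporter cells, 24 h at 37 degrees C. Readout was Dual-Glo firefly luminescence.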

Activity change, positive = activation, inactive:
COc1ccccc1-c1cc(NC(=O)COc2ccc(C)c(C)c2)n(-c2ccccc2)n1 8.49%
O=C(NC1CC(=O)N(c2ccccc2)C1)c1ccc(S(=O)(=O)N2CCOCC2)cc1 (stereo not drawn) -20.3%
c1ccc(-c2cn(-c3ccccc3)c3ncnc(N4CCN(c5ccccc5)CC4)c23)cc1 -1.96%
COc1ccc(OC)c(NC(=O)CSc2n[nH]c(-c3ccccc3Cl)n2)c1 -21.1%
Cc1cc(C)cc(Oc2c(C(F)(F)F)oc3c(CN4CCCC(C)C4)c(O)ccc3c2=O)c1 (stereo not drawn) -10.7%
COc1ccccc1N1CCN(c2ccc3cc(S(=O)(=O)N4CCCCC4)ccc3n2)CC1 -33.2%
CCOC(=O)CC(NC(=O)c1cc2cc(Cl)ccc2oc1=O)c1ccc(C)cc1 (stereo not drawn) 0.713%
CCOc1ccc(-n2nc(CO)c(C(=O)NCc3ccc(Cl)cc3)n2)cc1 -4.37%
CC1CCN(C(=O)CSc2c3c(nc4cc(Cl)ccc24)CCCC3)CC1 -43.3%
Cc1ccc(-c2nnc(SCCOc3ccccc3)o2)cc1 22.3%
COc1ccc(Br)c2c1-c1nc(NC(=O)c3cccc(C)c3)sc1C2 -18.4%
O=S1(=O)c2ccccc2N(Cc2ccc(Cl)cc2F)c2ccccc21 -14.6%
CN(C)S(=O)(=O)c1ccc2c(c1)c(=O)c(C(=O)N1CCN(c3cccc(Cl)c3)CC1)cn2C 0.752%
COc1ccc(OC)c(NC(=O)CSC2=Nc3ccccc3C3=NC(CCC(=O)NCc4ccco4)C(=O)N23)c1 (stereo not drawn) 8.46%
CCC(=O)Nc1nnc(S(=O)(=O)N(C)Cc2ccc(Cl)cc2)s1 -12.2%
CCOC(=O)c1ccc(NC(=O)CN(c2ccc(C)cc2)S(=O)(=O)c2ccc(OC)cc2)cc1 25.9% [at 11.5 µM, percent change from vehicle, -100% = no light]
CCOc1ccccc1NC(=O)CSC1=Nc2ccccc2C2=NC(CC(=O)NC3CCCCC3)C(=O)N12 (stereo not drawn) -16%
CCOc1ccc(-c2nc3c(c(SCC(=O)N4CCCCC4)n2)Cc2cc(C)ccc2O3)cc1 -5%
COc1ccc(N2CCN(CCCNC(=O)Nc3ccccc3Cl)CC2)cc1 -16.5%
COc1ccc(CCNC(=O)CN(c2ccc(C)cc2)S(=O)(=O)c2ccc(OC)cc2)cc1 -22.3%
CCOc1ccc(CN2C(=O)c3ccccc3Sc3ccc(C(=O)N4CCN(C)CC4)cc32)cc1 -19.9%
CCC(CC)C(=O)Nc1c(C(=O)N2CCN(c3ccccc3F)CC2)oc2ccccc12 -32.3%
CCC(Sc1nc2cc(OC)c(OC)cc2c(=O)n1Cc1ccc(Cl)cc1)C(=O)NCCOC (stereo not drawn) -1.67%
Cc1cc(NC(=O)c2cccnc2)cc(-c2nc3cc(Cl)ccc3o2)c1O -2.04%
COc1ccc(OC)c(NC(=O)CSC2=Nc3ccccc3C3=NC(CC(=O)NCc4ccco4)C(=O)N23)c1 (stereo not drawn) -26.7%
COc1ccc(NC(=O)c2sc3nc(C)c(C(=O)Nc4ccc(C)cc4C)c(-c4ccc(Cl)cc4)c3c2N)cc1 -15.9%
O=C(NCc1ccc2c(c1)CCN2C(=O)c1ccncc1)c1cccc(Cl)c1 -23.7%
CN(C(=O)CCCOc1ccc2[nH]c(=O)ccc2c1)C1CCCCC1 -17.1%
NNC(=O)c1ccncc1
Cc1oc(-c2ccccc2F)nc1CS(=O)(=O)CC(=O)N1CCN(c2cccc(C(F)(F)F)c2)CC1 -54.5%
N#Cc1ccc(C(=O)Nc2ccc(Cl)c(-c3nc4cc(Cl)ccc4o3)c2)c(F)c1 1.63%
COc1ccc(N2CCN(C(=O)Cn3ncc4c3-c3cc(C)ccc3OC4)CC2)cc1 -14.9%
Cc1ccc(NC(=O)c2cccc(NC(=O)N3CCSc4ncccc43)c2)cc1Cl 14%
COc1ccc(-c2nc3sc(CCNC(=O)C(=O)Nc4cc(C)cc(C)c4)c(C)n3n2)cc1 -6.78%
CCN(C(=O)c1nn(-c2ccc(OC)c(Cl)c2)c(=O)c2c1c1ccccc1n2C)c1cc(OC)ccc1OC -14.5%
Cc1ccc(C(=O)NCC(c2cccs2)S(=O)(=O)c2cccs2)cc1C (stereo not drawn) -15.6%
CCOc1ccc(NC(=O)CN(C)S(=O)(=O)c2ccc3c(c2)c(=O)n(C)c(=O)n3C)cc1 -19%
COc1cc(OC)cc(C(=O)Nc2cc(-c3nc4ccccc4s3)ccc2OC)c1 3.62%
CC(=O)c1ccc(NC(=O)CSc2cn(CC(=O)N3CCCCC3)c3ccccc23)cc1 -16.5%
CCOc1ccc(-c2cn(-c3ccc(OC)cc3)c(SCC(=O)Nc3ccccc3Cl)n2)cc1 -19.7%
COc1ccc(F)cc1S(=O)(=O)NCCc1csc(-c2ccc(Cl)cc2)n1 -30.6%
CCc1ccc(NC(=O)C2CCN(c3nnc(-n4c(C)ccc4C)s3)CC2)cc1 -18.8%
CCC(=O)Nc1sc2c(c1C(=O)Nc1ccc(OC)cc1)CCC(C(C)(C)C)C2 (stereo not drawn) -3.67%
O=C(Nc1ccc(S(=O)(=O)N2CCC(c3nc4ccccc4s3)CC2)cc1)c1ccc(F)cc1 -11.9%
Cc1ccc(NC(=O)C2Cc3ccccc3N2C(=O)c2ccccc2)cc1Cl (stereo not drawn) -12.1%
Cc1cc(C)c(S(=O)(=O)NCCc2cc3c(C)ccc(C)c3[nH]c2=O)c(C)c1 1.37%
Cc1ccc(C)c(-n2nnc(-c3nc(-c4ccc(Cl)cc4)no3)c2N)c1 27%
CCCC(=O)NCCc1nc2ccccc2n1Cc1c(F)cccc1Cl -18.6%
CC(=O)c1cc(-c2ccccc2)n(CC(=O)NC2CCCCCC2)c1C -7.33%
O=C(Cn1c(=O)n(Cc2cccs2)c(=O)c2cccnc21)Nc1ccccc1F -13.5%
Cc1cc(O)c(C(c2cccc(F)c2)N2CCC(C)CC2)c(=O)n1Cc1ccco1 (stereo not drawn) 5.51%
O=C(NCCc1ccc(Cl)cc1)c1cccn1-c1nnc(N2CCCCC2)s1 -19.9%
COc1ccc(N2CCN(C(=O)CSCc3nc(-c4ccccc4Cl)oc3C)CC2)cc1 -41.2%
CCc1nc(-c2cc(S(=O)(=O)N3CCN(c4ccc(F)cc4)CC3)ccc2OC)no1 -19.3%
CN(C1CCCCC1)S(=O)(=O)c1ccc(C(=O)Nc2sc3c(c2C(N)=O)CC(C)(C)NC3(C)C)cc1 -7.95%
Cc1cccc(NC(=O)CSc2nc3c(c(=O)[nH]2)CN(Cc2ccc4c(c2)OCO4)CC3)c1C 4.21%
CCc1ccc(-n2c(=O)c3cccnc3n2CC(=O)NCc2ccc(F)cc2)cc1 -12.9%
O=C(NCc1cccc(F)c1)c1ccc(CS(=O)c2ccccc2Cl)o1 (stereo not drawn) -9.84%

— PubChem BioAssay AID1508624 (National Center for Advancing Translational Sciences (NCATS), 2021)
